Source: PubChem BioAssay AID540317 (National Center for Advancing Translational Sciences (NCATS), 2011)
Screen size: about 390,000 compounds; about 2,200 (0.56%) were called active. This list was built around the results that the source calls inconclusive (neither active nor inactive); the mix of calls is not that of the screen. Calls come from the whole dose curve; as a rule, active = well fitted inhibition curve with a large enough effect; inconclusive = small, poorly fitted or top-dose-only effect; inactive = no such curve, though single readings can be large or run the other way. A potency beside an inconclusive call is a rough fit, not a confirmed value.
Note: nearly all actives have a fitted effect of over 70% in size.
Potency is the fitted concentration of half-maximal effect; tags give direction and shape of the fitted curve.

The compounds below were run against Chromobox protein homolog 1 (Homo sapiens) (UniProt P83916) (assay: HTS for Inhibitors of HP1-beta Chromodomain Interactions with Methylated Histone Tails). Conditions: AlphaScreen HP1-beta / biotin-H3K9me3 peptide binding; series mostly up to 114 µM; activity change, negative = inhibition: at the top concentration.
Sequence of UniProt P83916 (P83916 whole entry, looked up): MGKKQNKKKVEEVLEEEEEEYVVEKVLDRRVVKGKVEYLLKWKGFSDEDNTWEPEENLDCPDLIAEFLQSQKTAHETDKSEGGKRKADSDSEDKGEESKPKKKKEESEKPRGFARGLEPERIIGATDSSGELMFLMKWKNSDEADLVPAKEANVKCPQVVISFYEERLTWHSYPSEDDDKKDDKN
Outline: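 Compound inhibition of the preformed complex between 50 nM HP1-beta and 50 nM biotinylated H3K9me3 peptide was read by AlphaScreen. Buffer was PBS pH 7.4 with 0.01% Tween-20. Incubations ran 30 min at room temperature, with 10 ug/mL donor/acceptor beads.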
For `COc1ccc(NC(=O)CNCc2ccc(Cl)cc2)cc1S(=O)(=O)N1CCOCC1`, the Potency was inconclusive: 25.1 µM [inhibitor, full curve]. For `O=C(/C=C/c1ccc(F)cc1)NC(=S)Nc1ccccc1O`, the “activity change, negative = inhibition” value was inactive: 28.2%. For `CC1(C)C2CCC(C2)C1(C)NC(=O)CNCc1cccs1` (stereo not given), the Potency was inconclusive: 14.1 µM [inhibitor, partial curve, poor fit]. In the case of `CCC(CO)Oc1cc(NCc2cccc(Cl)c2)c2ncn(C(C)C)c2c1` (stereo not given), the Potency is reported as inconclusive: 28.2 µM [inhibitor, full curve]. In the case of `NC(=S)NN=C(c1ccc(F)cc1)C1CC1`, the Potency is reported as inconclusive: 89.1 µM [inhibitor, single point]. For `CCOC(=O)c1c(NC(=S)NCC2CCCO2)sc(C)c1C` (stereo not given), the Potency was inconclusive: 56.2 µM [inhibitor, partial curve, poor fit]. With `CCn1nc(C)c(CCN(C)C(=O)Nc2cc(C)cc(C)c2)c1C` the Potency was inconclusive: 17.8 µM [inhibitor, partial curve]. In the case of `COc1ccc(N2CCN(C(C)C(=O)N3CCCC3)CC2)cc1` (stereo not given), the Potency is reported as inconclusive: 11.2 µM [inhibitor, partial curve, poor fit]. In the case of `CC(Sc1nc(N2CCOCC2)c2c(c1C#N)CC(C)(C)OC2)C(=O)O` (stereo not given), the “activity change, negative = inhibition” value is reported as inactive: 17.7%. For `O=C(NN1C(=O)/C(=C/C=C/c2ccco2)SC1=S)c1ccncc1`, the Potency was active: 12.6 µM. In the case of `CCOc1cc(CN2CCN(c3ncccn3)CC2)ccc1OC`, the Potency is reported as inconclusive: 56.2 µM [inhibitor, single point]. For `CC1CCCC(C)N1/N=C/c1ccc(O)c(O)c1` (stereo not given), the Potency was inconclusive: 56.2 µM [inhibitor, single point]. `OCCN1CCN(c2ncnc3c2c(-c2ccccc2)cn3-c2ccc(F)cc2)CC1` was tested, and the “activity change, negative = inhibition” value was inactive: -16.6%. In the case of `Cc1cc(C)c(OCCOCCN2CCCC2)c(C)c1`, the Potency is reported as inconclusive: 79.4 µM [inhibitor, single point]. With `CCCCc1ccc(NC(=O)N2CCNC(=O)C2CC(=O)Nc2ccsc2C(=O)OC)cc1` (stereo not given) the Potency was inconclusive: 89.1 µM [inhibitor, single point]. For `COc1ccc(Br)cc1/C=N/N1C(=O)CSC1=S`, the Potency was inconclusive: 28.2 µM [inhibitor, partial curve]. With `O=C(O)c1cc(-c2ccc(/C=C3/SC(=S)N(Cc4ccccc4)C3=O)o2)ccc1Cl` the Potency was inconclusive: 56.2 µM [inhibitor, partial curve, poor fit]. `CCOC(=O)c1c(O)c(O)c(C(=O)OCC)n1-c1ccccc1` was tested, and the “activity change, negative = inhibition” value was inactive: -17%. For `Cc1ccoc1C(=O)NCCNc1ccc(Cl)cc1[N+](=O)[O-]`, the Potency was inconclusive: 50.1 µM [inhibitor, partial curve, poor fit]. For `O=C(COc1nsnc1N1CCOCC1)Nc1cccc(Cl)c1`, the Potency was inconclusive: 70.8 µM [inhibitor, partial curve]. In the case of `COc1ccc(CNc2oc(Cc3cccc4ccccc34)nc2C#N)cc1`, the Potency is reported as inconclusive: 25.1 µM [inhibitor, single point]. `O=C(N/N=C/c1ccc[nH]1)c1cc(-c2ccc(Cl)cc2)nc2ccccc12` was tested, and the Potency was inconclusive: 25.1 µM [inhibitor, single point]. In the case of `CCc1ccccc1NC(=O)C1CCN(C(=O)N2CC(C)Oc3ccc(Cl)cc32)CC1` (stereo not given), the Potency is reported as inconclusive: 14.1 µM [inhibitor, full curve]. `CNCCCCOc1ccc(C(C)(C)C)cc1Cl` was tested, and the Potency was inconclusive: 79.4 µM [inhibitor, single point]. With `COc1ccc(CCNC(=O)/C=C/c2ccco2)cc1OC` the “activity change, negative = inhibition” value was inactive: -15.1%. `O=C(C[n+]1cn(C(F)F)c2ccccc21)c1ccc(Br)cc1` was tested, and the “activity change, negative = inhibition” value was inactive: 40.3%. For `Cc1ccc(Nc2nc(=O)c3cccnc3s2)c(Br)c1`, the “activity change, negative = inhibition” value was inactive: 7.16%. In the case of `Cc1ccc(C)c(NC(=S)c2ccccn2)c1`, the Potency is reported as active: 6.31 µM. With `COc1cc(C2NC(=O)NC(c3ccccc3)=C2C(C)=O)cc([N+](=O)[O-])c1O` (stereo not given) the “activity change, negative = inhibition” value was inactive: 39.5%. In the case of `O=C(Nc1ccc(N2CCCC2)cc1)c1cc([N+](=O)[O-])ccc1N1CCOCC1`, the Potency is reported as inconclusive: 22.4 µM [inhibitor, full curve]. For `CC1CCCN(C(=O)C2CCN(CC3CC=CCC3)CC2)C1` (stereo not given), the Potency was inconclusive: 44.7 µM [inhibitor, partial curve, poor fit]. In the case of `O=C(COc1ccccc1F)Nc1nc(-c2ccccn2)cs1`, the Potency is reported as inconclusive: 28.2 µM [inhibitor, partial curve, poor fit]. `[O-]c1c[n+](-c2ccc(-[n+]3cc([O-])on3)cc2)no1` was tested, and the Potency was inconclusive: 70.8 µM [inhibitor, single point]. `CC(=O)N(C)c1ccc(C=C2C=Cc3ccccc32)cc1` was tested, and the Potency was inconclusive: 56.2 µM [inhibitor, partial curve, poor fit]. With `S=C(Nc1cccc(Cl)c1Cl)Nn1cnnc1` the Potency was inconclusive: 15.8 µM [inhibitor, full curve]. `O=[N+]([O-])c1cccnc1N1CCC(c2cc(-c3cccc(C(F)(F)F)c3)n[nH]2)CC1` was tested, and the Potency was inconclusive: 79.4 µM [inhibitor, single point]. With `CCN1C(c2ccccc2)=C(c2ccccc2)S/C1=C/C=C1\SC(=S)N(C)C1=O` the Potency was active: 11.2 µM. For `CCNC(=O)C1CCN(c2nnc(C)c3c(C)n(-c4ccc(OC)cc4)nc23)CC1`, the “activity change, negative = inhibition” value was inactive: 37.6%. `COC(=O)c1c(-c2cccs2)csc1NC(=O)c1ccc(OC)c(OC)c1` was tested, and the Potency was inconclusive: 3.55 µM [inhibitor, full curve]. For `CCN1/C(=C/c2ccc3ccccc3[n+]2CC)C=Cc2ccccc21`, the Potency was active: 17.8 µM. With `O=S(=O)(NCc1cc(-c2ccccc2Cl)no1)c1ccc(Cl)cc1` the Potency was inconclusive: 8.91 µM [inhibitor, partial curve, poor fit]. For `N/C(Cn1cncn1)=N\NC(=O)c1ccc(Cl)cc1Cl`, the Potency was inconclusive: 89.1 µM [inhibitor, single point]. For `COc1ccc(S(=O)(=O)c2c(SC)nn(CC(=O)Nc3cccc(C)c3C)c2N)cc1`, the “activity change, negative = inhibition” value was inactive: 12.1%. In the case of `Cn1c(Cn2c(=O)sc3ccccc32)nnc1SCC(=O)NC1CCCCC1`, the “activity change, negative = inhibition” value is reported as inactive: 20.2%. For `CN(C)c1ccc(S(=O)(=O)N(C)C)cc1NC(=O)Cc1cccc2ccccc12`, the “activity change, negative = inhibition” value was inactive: 6.8%.
